Experimental data reported in publication PMC4336329 (PLoS ONE, 2015).
In all, about 310,000 compounds went through this assay and about 2,200 (0.71%) showed an effect of 50% or more. The effect is printed as a negative number. Some of the results follow.

Target: human ether-à-go-go-related gene (hERG) potassium channel (human, UniProt Q12809)
Assay: primary screen, population patch clamp on CHO cells stably expressing hERG

Chain of human ether-à-go-go-related gene (hERG) potassium channel (Q12809 whole entry, looked up): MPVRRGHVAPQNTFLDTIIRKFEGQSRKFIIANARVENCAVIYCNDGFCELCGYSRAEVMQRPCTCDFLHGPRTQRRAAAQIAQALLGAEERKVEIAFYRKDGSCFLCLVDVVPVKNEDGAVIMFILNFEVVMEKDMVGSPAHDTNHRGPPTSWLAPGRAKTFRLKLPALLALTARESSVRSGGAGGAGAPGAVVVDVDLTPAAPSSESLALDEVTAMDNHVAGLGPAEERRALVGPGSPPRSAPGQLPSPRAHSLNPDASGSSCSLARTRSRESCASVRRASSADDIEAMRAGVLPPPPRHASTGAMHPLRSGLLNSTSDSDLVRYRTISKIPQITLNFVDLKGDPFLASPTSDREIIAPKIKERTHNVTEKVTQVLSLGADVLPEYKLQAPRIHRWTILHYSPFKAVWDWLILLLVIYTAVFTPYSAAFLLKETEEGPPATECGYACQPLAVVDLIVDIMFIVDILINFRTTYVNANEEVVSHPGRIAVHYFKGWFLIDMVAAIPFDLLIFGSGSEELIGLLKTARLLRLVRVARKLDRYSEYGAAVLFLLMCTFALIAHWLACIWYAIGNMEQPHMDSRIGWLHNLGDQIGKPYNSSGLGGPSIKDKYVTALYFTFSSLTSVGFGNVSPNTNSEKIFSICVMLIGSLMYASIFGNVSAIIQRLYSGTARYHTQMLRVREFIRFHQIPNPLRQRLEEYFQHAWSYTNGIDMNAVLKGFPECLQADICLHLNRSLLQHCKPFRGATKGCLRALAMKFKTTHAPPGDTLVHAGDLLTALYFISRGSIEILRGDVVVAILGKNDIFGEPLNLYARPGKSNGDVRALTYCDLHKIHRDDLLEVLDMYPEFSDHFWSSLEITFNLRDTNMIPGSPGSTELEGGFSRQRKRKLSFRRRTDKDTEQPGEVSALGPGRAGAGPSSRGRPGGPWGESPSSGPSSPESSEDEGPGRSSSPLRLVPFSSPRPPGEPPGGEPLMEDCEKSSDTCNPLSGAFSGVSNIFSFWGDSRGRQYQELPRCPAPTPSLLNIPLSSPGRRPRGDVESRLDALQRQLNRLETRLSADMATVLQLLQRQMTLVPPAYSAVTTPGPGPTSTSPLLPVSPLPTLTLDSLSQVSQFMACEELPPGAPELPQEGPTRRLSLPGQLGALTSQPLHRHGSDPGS

| Structure (SMILES) | hERG current change (%, negative = inhibition) at 1uM |
| --- | --- |
| O=c1c2ccc(Cl)cc2nc(-c2cccc(C(F)(F)F)c2)n1O | -2.49% |
| Cc1ccc(CN2CC(C(=O)NCCC3=CCCCC3)CC2=O)cc1 (stereo not shown) | 0.947% |
| CCCCNS(=O)(=O)c1ccc2nc(-c3cccnc3)cc(C(=O)NCC(OC)OC)c2c1 | 0.0455% |
| Cc1ccc(OCc2cc(C(=O)Nc3ccccc3)oc2C)cc1 | 11.3% |
| O=S(=O)(c1ccccc1)N(Cc1ccccn1)Cc1ccccn1 | 19.1% |
| O=C(NCCCN1CCCC1=O)Nc1cc(Cl)ccc1Cl | 14.8% |
| O=C(/C=C/c1ccc(Cl)cc1Cl)NCCN1CCOCC1 | -7.32% |
| CN1CCN(c2ccc(S(=O)(=O)N3CCCCC3)cc2[N+](=O)[O-])CC1 | -13.9% |
| COc1cccc2cc(C(=O)Nc3ccccc3C)/c(=N/NS(=O)(=O)c3ccccc3)oc12 | 12.9% |
| CCC(CO)NCc1ccc(OCC(=O)Nc2cccc(C(F)(F)F)c2)c(OC)c1 (stereo not shown) | -10.7% |
| COc1cccc(C(=O)C2CCCN(Cc3cn(C)nc3-c3ccccc3)C2)c1 (stereo not shown) | -18.2% |
| Cc1ccc(Cl)cc1Nc1nc(-c2sc(NC(=O)c3ccco3)nc2C)cs1 | 5.61% |
| CCCCn1c(C(C)NC(=O)COC)nc2ccccc21 (stereo not shown) | -13.4% |
| COc1ccc(S(=O)(=O)N2CCC(N3CCCC3)CC2)cc1 | 7.53% |
| CC/C(=N\NC(=O)Nc1ccccc1)c1ccccc1 | -1.08% |
| O=C(NCCCN1CCOCC1)c1ccc(-c2ccc(Cl)cc2)o1 | 7.36% |
| O=C(CN1C(=O)c2ccccc2C1=O)Nc1cccc(Cl)c1 | 16% |
| O=C(CNC(=O)c1ccco1)OCc1ccc(Br)cc1 | 12.5% |
| COc1ccc(-n2nnnc2-c2cnc3cc4c(cc3c2C)OCO4)cc1 | 9.53% |
| Cc1cc(-c2csc(N)n2)c(C)n1-c1ccccc1 | 3.84% |
| Cc1cccc(Oc2cnn(C(C)(C)C)c(=O)c2Cl)c1 | 4.42% |
| CCCCCCN(CCCCCC)C(=O)Cc1c(-c2ccc(F)cc2)[nH]c2ccccc12 | 18.3% |

| Structure (SMILES) | hERG current change (%, negative = inhibition) at 1uM |
| --- | --- |
| CCn1c(C(=O)N2CCc3ccccc3C2)cc2oc3ccccc3c21 | 18.1% |
| CCCc1cc(=O)n2[nH]c(NCc3cccs3)nc2n1 | 10.2% |
| Cc1ccc(CSc2ncnc3ccccc23)cc1 | 6.86% |
| COc1c(O)cccc1/C=N/NC(=O)Cn1ccnc1C | 7.84% |
| COc1ccc(-c2nn(-c3ccccc3)cc2/C=N/N=C(N)N)cc1OC | 8.68% |
| Cc1ccc(NC(=O)COC(=O)c2cc(Cl)ccc2[N+](=O)[O-])c(C)c1 | 1.75% |
| O=C(O)CCn1c(SCc2cccc3ccccc23)nc2ccccc21 | 8.52% |
| CC(C)(C)c1csc(Sc2ccc([N+](=O)[O-])cn2)n1 | 7.57% |
| Cc1nnc(SCc2cc([N+](=O)[O-])cc3c2OCOC3)n(N)c1=O | 13% |
| CC(NC(=O)c1cc(S(=O)(=O)N(C)C)ccc1Cl)C1CC2CCC1C2 (stereo not shown) | 14.2% |
| COc1ccc(OCc2nc3ccc(S(=O)(=O)Nc4ccccc4Cl)cc3[nH]2)cc1 | 8.76% |
| COc1ccc2c([N+](=O)[O-])c(N3CCCC3)[nH]c2c1 | 9.6% |
| COC(=O)c1ccc(C(=O)OC)c(NC(=S)N2CCN(C(=O)C3CCCO3)CC2)c1 (stereo not shown) | 7.79% |
| O=C(O)CCCn1ccc2cc(S(=O)(=O)N3CCCC3)ccc21 | 15.7% |
| Cn1nnnc1SCC1=C(C(=O)O)N2C(=O)C(NC(=O)Cn3nc(C(F)F)cc3C3CC3)C2SC1 (stereo not shown) | 10% |
| NC(=O)c1c(NC(=O)CCCC(=O)O)sc2c1CCCCCC2 | 5.98% |
| Cc1cccc[n+]1CC(=O)c1ccc(Cl)cc1.[Cl-] | 17.9% |
| Brc1ccc(-c2noc3c2-c2nc(C4CCCCC4)sc2CC3)cc1 | 16.9% |
| CC[C@@]12C(=O)N(c3ccc(OC)cc3)C(=O)N1[C@H](c1cccc(C)c1)[C@@H]1C(=O)N(Cc3ccccc3)C(=O)[C@@H]12 | -3.71% |
| Cc1cc(C)n(CC(O)COc2ccc3ccccc3c2)n1 (stereo not shown) | 7.08% |
| COc1ccc(NC(=O)Cc2ccc(Cl)cc2)cc1S(=O)(=O)N1CCCCC1 | -1.25% |
| Cc1ccc(Oc2ccc(-c3nc(N)nc(N)n3)cc2)cc1C | 2.33% |

| Structure (SMILES) | hERG current change (%, negative = inhibition) at 1uM |
| --- | --- |
| CCn1c(-c2csc3c2CCC(C)C3)n[nH]c1=S (stereo not shown) | 9.99% |
| CC(NC(=O)CN1CCN(CC(=O)Nc2ccccc2Cl)CC1)c1ccc(Br)cc1 (stereo not shown) | -10.2% |
| COc1cc(OC)c(NC(=O)CCNC(=O)Cn2cnc3ccccc3c2=O)cc1Cl | 3.54% |
| Cc1cc(C)nc(S/C=C/C(=O)c2ccc(F)cc2)n1 | 15.8% |
| Cc1ccc(SC(C)C(=O)Nc2ccncc2)cc1 (stereo not shown) | -10.3% |
| OCCCNc1nc(-c2ccccc2)c2cc(Cl)ccc2n1 | 5.65% |
| O=C(Nc1ccc(Cl)c(Cl)c1)c1csc(-c2ccccc2)n1 | 9.67% |
| O=C(NCCCN1CCOCC1)c1sc2cc(Cl)ccc2c1Cl | 6.47% |
| O=C(CNCCc1ccccc1)Nc1ccc(C(=O)N2CCCCC2)cc1.O=C(O)C(=O)O | 7.88% |
| O=C(CSc1ccc2nnc(-c3ccc(F)cc3)n2n1)N1CCOCC1 | -2.83% |
| N#Cc1ccc(-c2cccnc2)nc1SCc1ccc(Cl)cc1Cl | 18.5% |
| COCCCNCCOc1ccccc1-c1ccccc1.O=C(O)C(=O)O | 3.07% |
| CCCN1CCN(S(=O)(=O)c2ccc3c(c2)OCCO3)CC1 | 7.09% |
| CC(C)(C)CC(C)(C)NC(=O)c1ccc2snnc2c1 | 7.19% |
| NC(=O)COC(=O)CCCSc1nc2ccccc2s1 | 7.55% |
| Cc1ccc(NC2=C(Cl)C(=O)OC2OC(=O)c2ccccc2)c(C)c1 (stereo not shown) | 10.5% |
| CCN(CC)C(=O)C1CCN(S(=O)(=O)c2ccc3oc4ccccc4c3c2)CC1 | 16.7% |
| CCN(CC(=O)Nc1ccc(NC(C)=O)cc1)CC(=O)Nc1ccccc1C(=O)c1ccccc1 | -1.86% |
| COc1ccccc1C1C(C#N)=C(N)Oc2c1c(-c1ccccc1)nn2-c1ccccc1 (stereo not shown) | 6.2% |
| Cc1cc2c3nonc3ccc2n1C | 7.1% |
| CCn1c(SCc2ccc(C(=O)Nc3cc(C)cc(C)c3)cc2)nnc1-c1ccncc1 | -16.3% |
| Cc1sc2nc(SCc3nc4ccccc4[nH]3)n(Cc3ccco3)c(=O)c2c1C | 9.72% |

| Structure (SMILES) | hERG current change (%, negative = inhibition) at 1uM |
| --- | --- |
| O=C(NCc1ccccc1Cl)C1(S(=O)(=O)c2ccc(Cl)cc2)CC1 | 7.67% |
| Cl.O=C(OCC1CCCN2CCCCC12)c1ccc2c(c1)OCO2 (stereo not shown) | -0.603% |
| CCn1ccc(=O)c2cc3c(cc21)OCO3 | 9.21% |
| COc1ccccc1C(=O)NCCC(=O)NNC(=O)c1ccccc1O | 13.2% |
| Cc1cccc(-c2nc(CN3CCCC(C(=O)NC4CCCCC4)C3)c(C)o2)c1 (stereo not shown) | -19.2% |
| O=C(Nc1nnc(C2CC2)s1)c1cccc(S(=O)(=O)N2CCc3ccccc32)c1 | 12.2% |
| COc1ccc(OC)c(/C=N/NC(=S)NCCc2ccccc2)c1 | 11.6% |
| CCOC(=O)C1=C(N)OC2=C(C(=O)CCC2)C1c1ccc2c(c1)OCO2 (stereo not shown) | 7.78% |
| O=C(NC1CC1)c1ccc(CN(c2ccccc2)S(=O)(=O)c2ccccc2)cc1 | 5.92% |
| N#Cc1c(NC(=O)CSc2ncnc3sccc23)oc(-c2ccco2)c1-c1ccco1 | 15.3% |
| COc1ccc(CCN2C(=O)CC(NC34CC5CC(CC(C5)C3)C4)C2=O)cc1OC (stereo not shown) | 13.2% |
| Nc1nonc1-n1nnc(C(=O)N/N=C/c2cccc(Cl)c2)c1CSc1ccc(Cl)cc1 | 13% |
| C/C=C(\C)C(=O)N1CC2(CC(c3cccc(NC(=O)CCCCC)c3)=NO2)C[C@@H]1C(N)=O (stereo partly shown) | 1.78% |
| O=C(Cc1n[nH]c(=O)c2ccccc12)NCc1ccccn1 | 9.31% |
| C=CCSc1ncccc1C(=O)NCc1ccccc1 | 5.84% |
| Cc1ccc(NC(=O)c2cccnc2)c([N+](=O)[O-])c1 | 13.6% |
| O=C(Cc1ccc(Br)cc1)NC1CCN(Cc2ccccc2)CC1 | -2.43% |
| COC(=O)C1=C(c2cccc(OCc3ccccc3)c2)C[C@@H]2CC[C@H]1N2C(=O)NCc1ccccc1 | 15.2% |
| CC1CC(C)CN(C/C=C/c2ccccc2[N+](=O)[O-])C1 (stereo not shown) | -25.7% |
| CC(C)CN(CC(C)C)CC(O)CN(c1ccccc1)S(=O)(=O)c1ccccc1[N+](=O)[O-] (stereo not shown) | -29.2% |
| CCn1cnc2cc(NC(=O)c3ccco3)ccc21 | 12.5% |
| O=C(c1ccncc1)N1CCN(c2ccc3ccccc3n2)CC1 | 4.33% |
